Measurements published in PubChem BioAssay AID1768 (National Center for Advancing Translational Sciences (NCATS), 2009).
Out of some 270,000 compounds screened, about 620 (0.23%) were called active. Inconclusive means that the source gave no clear call. Such entries were picked first, then a sample of the others. Calls follow the shape of the dose curve; as a rule, active = well fitted inhibition curve with a large enough effect in the polarisation, with a control signal flat (not every such curve was filed as active); inconclusive = small, poorly fitted or top-dose-only effect, or effect the other way, or a change in a side signal; inactive = no such curve, though single readings can be large or run the other way; the % refers to the polarisation. Potencies of inconclusive entries are doubtful fits and often do not repeat. A note “side channel” means that the fit belongs to a control or component signal, not to the main read-out.

Molecular target: Menin (Homo sapiens) (UniProt O00255)
Chain of UniProt O00255 (O00255 whole entry, looked up): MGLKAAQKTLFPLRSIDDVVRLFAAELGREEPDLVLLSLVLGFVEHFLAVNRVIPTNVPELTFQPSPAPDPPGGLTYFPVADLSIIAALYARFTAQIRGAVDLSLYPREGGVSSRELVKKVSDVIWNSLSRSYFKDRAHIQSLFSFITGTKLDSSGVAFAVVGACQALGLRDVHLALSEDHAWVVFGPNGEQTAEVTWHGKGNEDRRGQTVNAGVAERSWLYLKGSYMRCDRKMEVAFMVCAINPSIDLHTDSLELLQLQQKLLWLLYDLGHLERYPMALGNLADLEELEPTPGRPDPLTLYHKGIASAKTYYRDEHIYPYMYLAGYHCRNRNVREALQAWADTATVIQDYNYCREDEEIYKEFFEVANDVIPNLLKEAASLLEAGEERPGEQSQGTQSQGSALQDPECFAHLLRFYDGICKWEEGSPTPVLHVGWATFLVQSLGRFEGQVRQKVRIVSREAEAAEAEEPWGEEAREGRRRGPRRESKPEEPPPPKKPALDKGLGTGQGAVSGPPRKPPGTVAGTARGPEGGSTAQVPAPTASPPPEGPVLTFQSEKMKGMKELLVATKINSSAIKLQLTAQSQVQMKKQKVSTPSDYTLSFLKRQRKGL
Assay: qHTS Assay for Inhibitors Targeting the Menin-MLL Interaction in MLL Related Leukemias: Competition With Texas Red Labeled MLL-derived Mutant Peptide; as to FP activity change, negative = inhibition: % of control where 0% means no effect
Settings: fluorescence polarization; FP activity change, negative = inhibition: at 61.6 µM (top of the series)
Potency is read from the fitted curve at half-maximal effect; tags tell the direction and shape of the fitted curve or compound fluorescence and quenching.

Compound	Potency	FP activity change, negative = inhibition
CC(C)(C)NCC(O)COc1ccccc1C(=O)CCc1ccccc1 (stereo unspecified)	inconclusive: 17.8 µM [fluorescent, side channel, partial curve]	
CCOC(=O)N1CCN(C(=O)CCSCCc2ccncc2)CC1	inconclusive: 4.47 µM [inhibitor, full curve, poor fit]	
Cc1cc(N=Nc2ccc(C)c(N=Nc3cc(C)c(N)cc3N)c2)c(N)cc1N	inconclusive: 8.91 µM [quencher, side channel, partial curve]	
CN(C)S(=O)(=O)c1cccc(-c2nn(-c3ccccc3)cc2/C=C2\SC(=S)NC2=O)c1	inconclusive: 8.91 µM [quencher, side channel, partial curve]	
Cc1nc(SCC(=O)c2cc3ccccc3oc2=O)c(C#N)c(C)c1C(=O)Nc1ccccc1	inconclusive: 3.98 µM [quencher, side channel, partial curve]	
O=S(=O)(Nc1nc2ccccc2s1)c1ccc(Cl)s1	inconclusive: 17.8 µM [quencher, side channel, partial curve]	
COc1ccc(-c2nn(-c3ccccc3)cc2/C=N/N2C(=O)CSC2=S)cc1	inconclusive: 8.91 µM [quencher, side channel, partial curve]	
O=C(NCCC1=CCCCC1)C(=O)NCC(c1ccco1)N1CCN(c2ccccc2)CC1 (stereo unspecified)	inconclusive: 15.8 µM [fluorescent, side channel, single point]	
OC1CCCN(Cc2c3ccccc3cc3ccccc23)C1 (stereo unspecified)		inactive: -5.45%
O=C(NC1CCCC1)C(c1ccc(N2CCOCC2)cc1)N(Cc1ccco1)C(=O)c1ccco1 (stereo unspecified)		inactive: -11.4%
Cc1cc(C2=NNC(=Nc3ccccc3)SC2)c(C)n1C	inconclusive: 14.1 µM [quencher, side channel, partial curve]	
COC(=O)c1ccc(OC(=O)N2CCOCC2)cc1	inconclusive: 31.6 µM [inhibitor, single point]	
CC(C)Oc1ccc(NC(=O)Oc2ccccc2)cc1	inconclusive: 25.1 µM [quencher, side channel, single point]	
CCOC(=O)N1CCN(C(=O)c2ccc3c(c2)N=C(CC)c2cc(C)ccc2S3)CC1	inconclusive: 2.82 µM [inhibitor, full curve]	
COc1cc(/C=C2/SC(=S)N(CC(=O)O)C2=O)ccc1OC(=O)c1ccco1	inconclusive: 14.1 µM [fluorescent, side channel, partial curve]	
COC(=O)c1c(NC(=O)COC(=O)[C@@H](NS(=O)(=O)c2ccc(C)cc2)C(C)C)sc2c1CCC2		inactive: -10.8%
COc1ccc(C(=O)CC(=O)C(=O)Nc2cc(Cl)c(OC)cc2OC)cc1	inconclusive: 39.8 µM [quencher, side channel, single point]	
CCC(CC)C(=O)Nc1ccc(Nc2ccccc2)cc1	inconclusive: 3.98 µM [quencher, side channel, full curve]	

Compound	Potency	FP activity change, negative = inhibition
CCCCNC(=O)N(O)C1N(/N=C/c2ccc(N(C)C)cc2)C(=S)SC1(C)C (stereo unspecified)	inconclusive: 39.8 µM [quencher, side channel, partial curve, poor fit]	
O=S(=O)(c1ccc(Cl)cc1)N1CCN(C2CCCCCC2)CC1	inconclusive: 44.7 µM [inhibitor, single point]	
Cc1ccc(Cn2c(=S)[nH]c3ccc(N4CCOCC4)cc3c2=O)o1	inconclusive: 31.6 µM [quencher, side channel, single point]	
O=C(O)c1ccc(NC2=C/C(=N/S(=O)(=O)c3ccccc3)c3ccccc3C2=O)cc1	inconclusive: 17.8 µM [quencher, partial curve]	
O=C(N/N=C\c1cccc(Cl)c1)c1ccc(Cn2cc(Br)c([N+](=O)[O-])n2)o1	inconclusive: 17.8 µM [quencher, side channel, partial curve]	
Cc1ccc(/C=C2\Sc3ccccc3C2=O)s1	inconclusive: 39.8 µM [quencher, side channel, single point]	
Cc1cc(=O)c2c(O)cc(O)c(C)c2o1		inactive: 1.81%
CCn1cc(C(=O)O)c(=O)c2cnc(N3CCN(C(=O)Nc4cccc5ccccc45)CC3)nc21	inconclusive: 39.8 µM [quencher, side channel, single point]	
CN(C)S(=O)(=O)c1ccc2nc(NC(=O)c3cccs3)sc2c1	inconclusive: 12.6 µM [quencher, side channel, partial curve]	
COc1ccccc1NC(=O)CSc1sc2c(O)cc(=O)[nH]c2c1C#N	inconclusive: 20 µM [quencher, side channel, partial curve]	
Cc1ccccc1CSCCNS(C)(=O)=O		inactive: -0.932%
Cc1ccc(NC(=O)CN2C(=O)S/C(=C\c3ccc(-c4cccc(C(=O)O)c4C)o3)C2=O)cc1	inconclusive: 7.94 µM [quencher, side channel, partial curve]	
CN(CCCC1CCCC1)C(=O)CC1C(=O)NCCN1Cc1ccc(F)cc1 (stereo unspecified)	inconclusive: 2.82 µM [inhibitor, partial curve, poor fit]	
CN(c1ccc(OCC(=O)OCC(=O)Nc2cccc([N+](=O)[O-])c2)cc1)S(=O)(=O)c1ccc(F)cc1	inconclusive: 7.94 µM [quencher, side channel, partial curve]	
CNC(=O)c1cccc(NC(=O)c2ccccc2OCc2ccccc2)c1	inconclusive: 22.4 µM [fluorescent, side channel, partial curve, poor fit]	
COc1ccc(OC)c(NC(=O)CSc2nnc(C)n2Cc2ccccc2)c1	inconclusive: 2.24 µM [inhibitor, full curve, poor fit]	
Cc1ccccc1Oc1cc(NC(=O)CCCn2nc(C)c([N+](=O)[O-])c2C)cc([N+](=O)[O-])c1	inconclusive: 10 µM [quencher, side channel, partial curve]	
CCc1ccc(CC)c(S(=O)(=O)Nc2ccc(C(=O)O)c(O)c2)c1	inconclusive: 39.8 µM [quencher, side channel, single point]	
